Measurements as given in the supplement of paper PMC10126150.
Sequences with one replicate were seen in a single cluster, so their values are uncertain.
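Also: ATP exposure 15 min at 22 °C before imaging.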

These sequences were tested on ATP (assay: switch fluorescence ratio, 500 uM ATP over buffer (Cy3 cluster intensity, sum of 5 cycles each) (fold (ratio)); higher = stronger signal-on switching upon ATP binding; sequences stand for … in TCGTCGGCAGCGTCAGATGTGTATAAGAGACAGTTTTTTTTTTTTTTTTTTTTTTTTT…TC). Details: aptamer strand: ATP DNA aptamer (quencher-CACCTGGGGGAGTATTGCGGAGGAAGG + anchor), 100 nM annealed; ATP concentration: 500 uM; one replicate.
In short: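 The fluorescence ratio divides summed target-cycle Cy3 intensity by summed buffer-cycle Cy3 intensity for each cluster and is averaged per switch-domain sequence. Cy3-labelled switching-strand clusters on a modified Illumina MiSeq flow-cell were annealed to 100 nM quencher-labelled ATP aptamer, then imaged in selection buffer and again after 15 min with 500 uM ATP at 22 °C. Five such cycles were run, with NaOH stripping and re-annealing between them, and clusters outside 100-1000 RFU were excluded.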
With GGATTCCGTC the switch fluorescence ratio was 1.04. GGATTCCTGG gave a switch fluorescence ratio of 0.959. GGATTCTCGG gave a switch fluorescence ratio of 1.02. GGATTTACAT gave a switch fluorescence ratio of 1.03. Work on GGCAAACTTT yielded a switch fluorescence ratio of 0.981. GGCAACAAGA gave a switch fluorescence ratio of 0.971. GGCAACAGCA gave a switch fluorescence ratio of 1.02. GGCAACCTCA gave a switch fluorescence ratio of 1.13. GGCAAGTTT was tested, and the switch fluorescence ratio was 1.03. Sequence GGCAATGAGC has a switch fluorescence ratio of 1.07. In the case of GGCACAAAAT, the switch fluorescence ratio is reported as 1.03. In the case of GGCACACATC, the switch fluorescence ratio is reported as 1.03. GGCACACGGT showed a switch fluorescence ratio of 1.05. GGCACGCCAG was tested, and the switch fluorescence ratio was 0.961. GGCACGCCTA was tested, and the switch fluorescence ratio was 1.36. In the case of GGCACTAGTA, the switch fluorescence ratio is reported as 0.97. Sequence GGCACTGTTT has a switch fluorescence ratio of 1.03. For GGCAGATACG, the switch fluorescence ratio was 1.13. GGCAGATTGG gave a switch fluorescence ratio of 1.01. In the case of GGCAGCACCG, the switch fluorescence ratio is reported as 0.968. For GGCAGGGTTG, the switch fluorescence ratio was 0.98. Sequence GGCAGTAGG has a switch fluorescence ratio of 0.984. GGCATATTAG gave a switch fluorescence ratio of 0.988. For GGCATCCCAA, the switch fluorescence ratio was 1.03. GGCATGAGGA was tested, and the switch fluorescence ratio was 1.01. GGCATGAGGC was tested, and the switch fluorescence ratio was 0.973. Work on GGCATGGAGC yielded a switch fluorescence ratio of 0.993. GGCATTCGGG was tested, and the switch fluorescence ratio was 1.03. Sequence GGCATTGAAC has a switch fluorescence ratio of 0.993. For GGCATTGTTG, the switch fluorescence ratio was 1.01. In the case of GGCCACAGCT, the switch fluorescence ratio is reported as 0.997. GGCCACGTTG was tested, and the switch fluorescence ratio was 1.01. GGCCACTAAT was tested, and the switch fluorescence ratio was 0.996. GGCCAGAGAT gave a switch fluorescence ratio of 0.975. GGCCAGGACA gave a switch fluorescence ratio of 1. For GGCCAGGGTT, the switch fluorescence ratio was 1.04. With GGCCAGTGTC the switch fluorescence ratio was 1.04. GGCCATGGTT was tested, and the switch fluorescence ratio was 0.965. GGCCATTGGT gave a switch fluorescence ratio of 1.02. GGCCCAGGAA was tested, and the switch fluorescence ratio was 1.19. GGCCCCATCG gave a switch fluorescence ratio of 0.972. With GGCCCCGCCT the switch fluorescence ratio was 0.993. GGCCCCGTGT gave a switch fluorescence ratio of 1.05. GGCCCCTTTC was tested, and the switch fluorescence ratio was 1.04. With GGCCCGCGCA the switch fluorescence ratio was 1.06. Work on GGCCGAGCGC yielded a switch fluorescence ratio of 0.977. With GGCCGATGGC the switch fluorescence ratio was 0.982. With GGCCGCATGT the switch fluorescence ratio was 1.42. GGCCGCGCAC showed a switch fluorescence ratio of 1.44. GGCCGGCCCG was tested, and the switch fluorescence ratio was 0.984. Sequence GGCCGGGCGC has a switch fluorescence ratio of 1.01. GGCCGGT was tested, and the switch fluorescence ratio was 1. With GGCCGGTGTC the switch fluorescence ratio was 1. GGCCGTATGC showed a switch fluorescence ratio of 0.979. With GGCCTAAAGT the switch fluorescence ratio was 1.02. GGCCTACACC gave a switch fluorescence ratio of 1.05. GGCCTAGCCA showed a switch fluorescence ratio of 0.995. With GGCCTATTAT the switch fluorescence ratio was 1.01. Work on GGCCTCCGTC yielded a switch fluorescence ratio of 1.83. For GGCCTCTAGT, the switch fluorescence ratio was 1. With GGCCTTGAGG the switch fluorescence ratio was 0.988. In the case of GGCCTTTGCA, the switch fluorescence ratio is reported as 1.03. Work on GGCGAACGAA yielded a switch fluorescence ratio of 1.09. GGCGAAGTTT was tested, and the switch fluorescence ratio was 1.01. In the case of GGCGACGACA, the switch fluorescence ratio is reported as 1.04. In the case of GGCGACGGCT, the switch fluorescence ratio is reported as 1. GGCGAGCAGG gave a switch fluorescence ratio of 1.02. GGCGATAGGC gave a switch fluorescence ratio of 1.01. GGCGATCGTA showed a switch fluorescence ratio of 1.02. GGCGATTGAG was tested, and the switch fluorescence ratio was 1.01. With GGCGCAAACC the switch fluorescence ratio was 1.98. Sequence GGCGCCAGAG has a switch fluorescence ratio of 0.979. GGCGCCATCG was tested, and the switch fluorescence ratio was 0.957. Sequence GGCGCGCACA has a switch fluorescence ratio of 1. Sequence GGCGCGGACT has a switch fluorescence ratio of 1.03. For GGCGGCACCC, the switch fluorescence ratio was 1.04. GGCGGCATTT was tested, and the switch fluorescence ratio was 1.15. Sequence GGCGGCGTGA has a switch fluorescence ratio of 0.984. GGCGGCTTC was tested, and the switch fluorescence ratio was 1.01. Work on GGCGGGAGAA yielded a switch fluorescence ratio of 0.984. With GGCGGGTGGC the switch fluorescence ratio was 0.98. GGCGTCCAGG gave a switch fluorescence ratio of 1.12. Sequence GGCGTGACTG has a switch fluorescence ratio of 0.999. Work on GGCGTGGCCT yielded a switch fluorescence ratio of 0.996. For GGCGTTCAAT, the switch fluorescence ratio was 1.01. GGCGTTGTGG gave a switch fluorescence ratio of 1.03. Work on GGCGTTGTGT yielded a switch fluorescence ratio of 0.995. Work on GGCGTTTACA yielded a switch fluorescence ratio of 0.994. In the case of GGCGTTTCGT, the switch fluorescence ratio is reported as 0.958. GGCGTTTGTT showed a switch fluorescence ratio of 0.966. GGCTAAAAAA showed a switch fluorescence ratio of 1.03. Work on GGCTAAACTT yielded a switch fluorescence ratio of 1.04. In the case of GGCTAATGAC, the switch fluorescence ratio is reported as 1.01. GGCTACATAT was tested, and the switch fluorescence ratio was 1.02. Work on GGCTACTTGG yielded a switch fluorescence ratio of 1.01. For GGCTAGGATG, the switch fluorescence ratio was 0.97. GGCTATAAGA was tested, and the switch fluorescence ratio was 1. GGCTATCGTG was tested, and the switch fluorescence ratio was 1.01. With GGCTCAAATA the switch fluorescence ratio was 1.04. GGCTCAGCTC gave a switch fluorescence ratio of 0.99. In the case of GGCTCCAACC, the switch fluorescence ratio is reported as 0.975. Sequence GGCTCCTCAG has a switch fluorescence ratio of 1.07. For GGCTCCTCGC, the switch fluorescence ratio was 1.11. For GGCTCGGGAT, the switch fluorescence ratio was 0.991. GGCTCTGCCT gave a switch fluorescence ratio of 1.01. GGCTGAACCT showed a switch fluorescence ratio of 1.61. GGCTGATCAT gave a switch fluorescence ratio of 0.968. Work on GGCTGGTCCT yielded a switch fluorescence ratio of 0.983. With GGCTGTAGTT the switch fluorescence ratio was 0.957. GGCTGTGTGG showed a switch fluorescence ratio of 1.01. With GGCTGTTGAC the switch fluorescence ratio was 0.993. Sequence GGCTTAGAAG has a switch fluorescence ratio of 1.04. With GGCTTATAAT the switch fluorescence ratio was 1. For GGCTTATTAA, the switch fluorescence ratio was 1. GGCTTCGGAG was tested, and the switch fluorescence ratio was 0.987. GGCTTGAAC was tested, and the switch fluorescence ratio was 1.11. GGCTTGGAGG showed a switch fluorescence ratio of 1.03. GGCTTGTGTG gave a switch fluorescence ratio of 0.955. GGCTTTAGGG showed a switch fluorescence ratio of 1.03. In the case of GGCTTTTCTG, the switch fluorescence ratio is reported as 1.04. In the case of GGGAAAACTG, the switch fluorescence ratio is reported as 0.979. GGGAAAAGTG showed a switch fluorescence ratio of 0.933. GGGAAAATGA was tested, and the switch fluorescence ratio was 1. Work on GGGAAACCCC yielded a switch fluorescence ratio of 1.25. GGGAAACCTA gave a switch fluorescence ratio of 1.02. For GGGAAAGCGA, the switch fluorescence ratio was 1.02. GGGAAAGTCC was tested, and the switch fluorescence ratio was 1.02. In the case of GGGAACAAAT, the switch fluorescence ratio is reported as 1.02. GGGAAGATAT showed a switch fluorescence ratio of 0.937. Sequence GGGAAGCCGG has a switch fluorescence ratio of 0.997. In the case of GGGAAGGCAG, the switch fluorescence ratio is reported as 0.988. GGGAAGTAG showed a switch fluorescence ratio of 0.988. With GGGAATATGG the switch fluorescence ratio was 1.04. Sequence GGGAATCCTG has a switch fluorescence ratio of 1.02. GGGAATGTAC gave a switch fluorescence ratio of 1.11. Sequence GGGAATGTGA has a switch fluorescence ratio of 0.985. GGGACAAAT showed a switch fluorescence ratio of 1. GGGACAAGGG showed a switch fluorescence ratio of 1.02. For GGGACAGAAT, the switch fluorescence ratio was 1. GGGACAGT showed a switch fluorescence ratio of 1.01. GGGACCGGCG showed a switch fluorescence ratio of 1.04. GGGACCTCGA was tested, and the switch fluorescence ratio was 0.989. GGGACGATCA was tested, and the switch fluorescence ratio was 1.05. For GGGACGGTAT, the switch fluorescence ratio was 0.96. Work on GGGACTAGTC yielded a switch fluorescence ratio of 1.07. For GGGACTTGCA, the switch fluorescence ratio was 1.05. GGGAGCAGCA showed a switch fluorescence ratio of 1.04. GGGAGCCAGG showed a switch fluorescence ratio of 0.997. In the case of GGGAGCGACA, the switch fluorescence ratio is reported as 0.959. With GGGAGCGATT the switch fluorescence ratio was 1.02. For GGGAGCGTAG, the switch fluorescence ratio was 0.971. GGGAGCTGGT gave a switch fluorescence ratio of 1.41. Sequence GGGAGGAGCG has a switch fluorescence ratio of 0.966. GGGAGGGATT showed a switch fluorescence ratio of 0.985. GGGAGGGTAA gave a switch fluorescence ratio of 1.08. With GGGAGGGTT the switch fluorescence ratio was 1.03. Work on GGGAGGTTGA yielded a switch fluorescence ratio of 1.01. GGGAGTATTG was tested, and the switch fluorescence ratio was 0.968. In the case of GGGAGTCGCG, the switch fluorescence ratio is reported as 0.982. In the case of GGGAGTGCCC, the switch fluorescence ratio is reported as 1.24. For GGGATACCAG, the switch fluorescence ratio was 1.01. GGGATAGCTT was tested, and the switch fluorescence ratio was 0.964. Work on GGGATCACGA yielded a switch fluorescence ratio of 1.03. With GGGATCTAAG the switch fluorescence ratio was 1. Work on GGGATCTGG yielded a switch fluorescence ratio of 1.01. In the case of GGGATGCAAT, the switch fluorescence ratio is reported as 0.982. GGGATGCGTA gave a switch fluorescence ratio of 1.04. GGGATGGTCA was tested, and the switch fluorescence ratio was 1.04. Sequence GGGATGTAAT has a switch fluorescence ratio of 0.968. Sequence GGGATTAGGT has a switch fluorescence ratio of 1.02. For GGGATTAGTA, the switch fluorescence ratio was 1.02. GGGATTCTGA was tested, and the switch fluorescence ratio was 0.979. For GGGATTTAGA, the switch fluorescence ratio was 1. GGGATTTCGG was tested, and the switch fluorescence ratio was 1. GGGCAAT gave a switch fluorescence ratio of 1.4. With GGGCAATCGA the switch fluorescence ratio was 1.37. GGGCAATTCG gave a switch fluorescence ratio of 1.13. Sequence GGGCACATTG has a switch fluorescence ratio of 1.01. For GGGCACTAGC, the switch fluorescence ratio was 1.05. With GGGCAGCGAG the switch fluorescence ratio was 0.988. GGGCAGTCGG was tested, and the switch fluorescence ratio was 0.967. Sequence GGGCCAATGT has a switch fluorescence ratio of 1.01. Sequence GGGCCCCTCT has a switch fluorescence ratio of 1. For GGGCCGACAC, the switch fluorescence ratio was 1.08. With GGGCCGATTG the switch fluorescence ratio was 0.998. With GGGCCGGGTG the switch fluorescence ratio was 0.99. For GGGCCGTGCG, the switch fluorescence ratio was 1. For GGGCCGTGGA, the switch fluorescence ratio was 1.01. With GGGCCGTGTT the switch fluorescence ratio was 0.973. With GGGCCTATCT the switch fluorescence ratio was 1.01. With GGGCCTCGTT the switch fluorescence ratio was 0.968. Work on GGGCGGGAGT yielded a switch fluorescence ratio of 0.998. GGGCGGGTAA gave a switch fluorescence ratio of 0.993. GGGCGGGTAC gave a switch fluorescence ratio of 1.15. GGGCGTACGT was tested, and the switch fluorescence ratio was 0.932. With GGGCTAGGCC the switch fluorescence ratio was 0.973. With GGGCTCATGA the switch fluorescence ratio was 0.964. For GGGCTCTAGT, the switch fluorescence ratio was 0.978. Work on GGGCTGGACC yielded a switch fluorescence ratio of 1.06. GGGCTGGCGC showed a switch fluorescence ratio of 1.04.
